Assay results taken from the RNAGym collection of RNA variant scans (doi:10.7554/elife.90254).
The source gives no read counts; variants with many changes may rest on few reads.

B1: LINE1-mini (parent)
chain: GGCAGAGCUCAACACAGCGUGGCAAAGUGGCUGUGGCUAGACUGCC

Variants of: B1
Test: self-cleavage, relative activity (ratio to wild type); higher = more cleavage; in vitro, sequencing; the parent is a self-cleaving ribozyme
For G2A A12G A16G G17U A39C, the self-cleavage was 0.01.
G1U U20C C23U G29U showed a self-cleavage of 0.21.
G1U C10G G22U U38A gave a self-cleavage of 0.05.
In the case of G1U G17A A26C C31G G33C, the self-cleavage is reported as 0.01.
In the case of G1U U34C G35A C42G, the self-cleavage is reported as 0.01.
Variant G1U G19C U32G C46U has a self-cleavage of 0.68.
G1U C10U U32G G35A showed a self-cleavage of 0.04.
With G1U G5U C8A G17A G44A the self-cleavage was 0.14.
With G1U C18U G36A C46G the self-cleavage was 0.04.
In the case of G2A A26G G27U U28G, the self-cleavage is reported as 1.32.
For G1U G7C C8A G21C G22A G30C, the self-cleavage was 0.01.
G2A C10G G27A showed a self-cleavage of 0.09.
For G2A A11U A24U G27A G29A C31A, the self-cleavage was 0.01.
Variant G1U U9A C15U U32A has a self-cleavage of 0.02.
Work on G1U C15U C18U A25G G35A G40A yielded a self-cleavage of 0.08.
For G2A C3U C8U C31G, the self-cleavage was 0.45.
G1U C31U G44U gave a self-cleavage of 0.05.
G1U G5C C10A C18A G40U showed a self-cleavage of 0.02.
Variant G1U G33C U34A has a self-cleavage of 0.03.
Variant G2A C3U U9A A39C has a self-cleavage of 0.22.
With G2A A11G G40U the self-cleavage was 0.17.
For G1U G7C C10A C37U C46A, the self-cleavage was 0.
G1U C10A A14C gave a self-cleavage of 0.01.
With G1U C10A A14G the self-cleavage was 0.02.
Variant G1U U9A A14U C15G G21C G27C G35U C37U has a self-cleavage of 0.01.
G1U G22C U38A gave a self-cleavage of 0.03.
G2A A12G G29A G36C showed a self-cleavage of 0.08.
Variant G1U U9C G36U has a self-cleavage of 0.03.
G2A A14C G33U showed a self-cleavage of 0.04.
With G1U G27U U32G C37A C46G the self-cleavage was 0.02.
Work on G1U G2A G36U C37G U43G yielded a self-cleavage of 0.09.
For G1U U9C G35U C37G, the self-cleavage was 0.02.
G2A C3A G35U gave a self-cleavage of 1.75.
Variant G2A A14U C45A has a self-cleavage of 0.08.
With G2A A4G G17C A24C G29C G30C G35C G44A the self-cleavage was 0.01.
G1U G36U C37U gave a self-cleavage of 0.
Work on G1U C10A A12C yielded a self-cleavage of 0.01.
G1U C13A U20C G29C U32A G36A showed a self-cleavage of 0.03.
G1U C10A C15U G17C showed a self-cleavage of 0.03.
In the case of G1U G5C G44C, the self-cleavage is reported as 0.03.
G1U G17U G27U U28G G29U G30A gave a self-cleavage of 0.04.
G1U C10U C23A showed a self-cleavage of 0.06.
In the case of G1U C18G G19C U28G G33U C42A, the self-cleavage is reported as 0.01.
G1U C13A G35C G44U gave a self-cleavage of 0.03.
With G2A A16U U34C C45G the self-cleavage was 0.39.
Variant G2A C3U A6U C10G C13U C23A has a self-cleavage of 0.04.
With G1U C8U C42A the self-cleavage was 0.11.
With G1U G21U U32C the self-cleavage was 0.06.
With G2A A11U C31G U38C the self-cleavage was 0.02.
G2A A11G G30A showed a self-cleavage of 0.05.
G2A A12G C23G showed a self-cleavage of 0.08.
G2A C8G C10A U20C C23U U38A gave a self-cleavage of 0.02.
Variant G2A A6U C37A U43C has a self-cleavage of 0.44.
In the case of G1U U9G G27A U43C, the self-cleavage is reported as 0.03.
Variant G2A C10A A14U C15G has a self-cleavage of 0.04.
Work on G1U G2C C3G C31U G40C yielded a self-cleavage of 0.09.
With G2A C3G U9C G29U the self-cleavage was 0.1.
With G1U C10A C13A A16C G27U the self-cleavage was 0.01.
In the case of G1U G33U C37U C45U, the self-cleavage is reported as 0.03.
For G1U G7U A11G, the self-cleavage was 0.01.
Variant G1U C8G G17C has a self-cleavage of 0.
In the case of G2A A26U A41U U43C, the self-cleavage is reported as 0.04.
Variant G1U C23A G29A U32C A41C has a self-cleavage of 0.02.
Work on G1U G17A G30U G36U U43C C45G yielded a self-cleavage of 0.01.
Variant G2A C10U C15U A26C G40A has a self-cleavage of 0.03.
Variant G2A A12U G36U U38A G40C has a self-cleavage of 0.02.
With G1U G36U C42U the self-cleavage was 0.12.
Variant G1U C18A G21U has a self-cleavage of 0.06.
Variant G1U G44A C45A has a self-cleavage of 0.02.
G1U C18U U38A C45A showed a self-cleavage of 0.05.
G1U G29U C42A showed a self-cleavage of 0.01.
In the case of G1U U9G C13U C18A A26U, the self-cleavage is reported as 0.01.
G1U C15U G35U G40C showed a self-cleavage of 0.29.
For G1U C8A U9G A26G, the self-cleavage was 0.02.
Work on G2A A6C C23G yielded a self-cleavage of 0.13.
For G1U U34C G40U, the self-cleavage was 0.01.
With G1U U20A A25C the self-cleavage was 0.08.
G2A A4G C31U A39C G40C showed a self-cleavage of 0.1.
G2A C3G A26G showed a self-cleavage of 0.64.
For G2A A4G A26C, the self-cleavage was 0.5.
G1U G7U A41G C42U showed a self-cleavage of 0.03.
With G1U G22A A26C the self-cleavage was 0.08.
G1U G21A A26G U32C G40A gave a self-cleavage of 0.02.
Work on G1U G2C G27A G35U yielded a self-cleavage of 0.06.
For G2A A6U G17C A24U A25G G27C G36C C46U, the self-cleavage was 0.07.
G1U G5U G21U gave a self-cleavage of 0.09.
For G1U G5U G21C, the self-cleavage was 0.04.
Work on G2A A26U G35U yielded a self-cleavage of 0.4.
In the case of G2A A26U G35A, the self-cleavage is reported as 0.02.
Work on G2A A12G A39C yielded a self-cleavage of 0.11.
Work on G1U C10A A14C G21U G33C C45U yielded a self-cleavage of 0.01.
G1U C13A G19C C42G gave a self-cleavage of 0.01.
Variant G1U C10A C42A C46U has a self-cleavage of 0.01.
Work on G1U G21A G27U U28C A39G yielded a self-cleavage of 0.05.
G2A C8G C13A C18A A39C showed a self-cleavage of 0.15.
In the case of G2A C10A G29U C46G, the self-cleavage is reported as 0.13.
G1U G21A C23A G29A U43A gave a self-cleavage of 0.03.
G1U U28G C42A G44A showed a self-cleavage of 0.03.
For G2A A6C C10U C13G G36C C46A, the self-cleavage was 0.03.
In the case of G2A A4U C10A, the self-cleavage is reported as 0.09.
G1U C10U A25U gave a self-cleavage of 0.03.
Variant G2A A14U G21U A25U G40U A41G has a self-cleavage of 0.37.
G1U U20A A24C U43A gave a self-cleavage of 0.02.
G1U G44U C45U gave a self-cleavage of 0.03.
G1U C10A G40U showed a self-cleavage of 0.01.
For G2A C3A C31A C46G, the self-cleavage was 0.44.
Work on G1U U20C C23A A24G U34G A41G G44U C45G yielded a self-cleavage of 0.03.
With G2A A24U C42U the self-cleavage was 0.29.
Work on G2A A11G C18U A25C yielded a self-cleavage of 0.01.
In the case of G1U G5U G17U C46A, the self-cleavage is reported as 0.02.
G2A A41U C46U gave a self-cleavage of 0.31.
In the case of G1U G5C G27A, the self-cleavage is reported as 0.02.
For G1U U9G C23A G30U A41U, the self-cleavage was 0.03.
Work on G1U C15G G21C A41U yielded a self-cleavage of 0.02.
G1U G7A C15U G22U gave a self-cleavage of 0.1.
In the case of G1U C10U G29A, the self-cleavage is reported as 0.11.
In the case of G1U C15G G21U, the self-cleavage is reported as 0.02.
G1U G29A C37A C46G showed a self-cleavage of 0.
In the case of G2A C3A C10G G17A C31G C46U, the self-cleavage is reported as 0.06.
For G1U C15A G29U, the self-cleavage was 0.05.
Work on G1U G5C C13U G19A yielded a self-cleavage of 0.03.
G2A A11U A16U G30A A39U showed a self-cleavage of 0.03.
Variant G1U C8A G30U G36U has a self-cleavage of 0.02.
G1U G2A G7U C13A U43A showed a self-cleavage of 0.04.
Variant G2A A4U U9C U28G G29U C31U has a self-cleavage of 0.03.
With G2A A4U C8G U43A the self-cleavage was 0.02.
G1U G2A G5A G17A C23G gave a self-cleavage of 0.07.
In the case of G1U G7U U20C G30U C46A, the self-cleavage is reported as 0.01.
G1U G17A C18G G19C G36U A39U gave a self-cleavage of 0.07.
With G1U C13G C15A the self-cleavage was 0.06.
Work on G1U G5U C18U C23U yielded a self-cleavage of 0.02.
In the case of G2A A11U A14U C15A U34A C42U C46U, the self-cleavage is reported as 0.01.
Work on G1U C8U C18A G29C G30U yielded a self-cleavage of 0.04.
G1U G5A U28A showed a self-cleavage of 0.21.
Variant G2A C3U A16G G21U U34C G35U G36U has a self-cleavage of 0.34.
Variant G2A A14C A24G has a self-cleavage of 0.12.
G1U C13A C15G A39C A41C showed a self-cleavage of 0.01.
In the case of G1U U20C U34C, the self-cleavage is reported as 0.04.
G1U G29U C31A gave a self-cleavage of 0.05.
Work on G1U U20A G21A G35C G36A G40U C42A yielded a self-cleavage of 0.
Work on G2A A14U C18U G30A C31A G36A yielded a self-cleavage of 0.42.
Variant G2A C8G G29U U34G has a self-cleavage of 0.03.
G2A A6G G33U A39G C42G gave a self-cleavage of 0.01.
With G2A A16U C31U the self-cleavage was 0.08.
In the case of G2A A4U U20C C31U, the self-cleavage is reported as 0.19.
Variant G1U U9C C23A has a self-cleavage of 0.02.
Variant G2A A14C A39G has a self-cleavage of 0.04.
G1U U20C A25U U28G G36U U38G gave a self-cleavage of 0.02.
G1U G2U A6C U28G G35C C42G showed a self-cleavage of 0.
For G2A A24U A25U U32G, the self-cleavage was 0.16.
For G2A A14U G17U G21A G33C, the self-cleavage was 0.05.
With G2A A11C G44C C45U the self-cleavage was 0.01.
G1U U9C C13A A16C gave a self-cleavage of 0.01.
G2A A4C G22U U28C G44A showed a self-cleavage of 0.12.
For G2A A25C G40A C42U U43G, the self-cleavage was 0.12.
Work on G2A C10U C45A yielded a self-cleavage of 0.09.
G1U G33C A39G G40U showed a self-cleavage of 0.02.
With G1U U20A A25U G30A G36C G40A the self-cleavage was 0.02.
G1U G19U C45A gave a self-cleavage of 0.02.
Variant G2A C10A G30C U34A has a self-cleavage of 0.07.
Work on G2A C3A A6G yielded a self-cleavage of 2.7.
In the case of G2A A12C U32C A41U G44U, the self-cleavage is reported as 0.02.
With G2A A11C G40A the self-cleavage was 0.03.
Variant G2A A16U G27A has a self-cleavage of 0.06.
With G2A A16U G27U the self-cleavage was 0.12.
In the case of G1U C8A G30U G33A U34C A41U, the self-cleavage is reported as 0.12.
For G1U C18A G36U A41G, the self-cleavage was 0.03.
